The results in this text go back to the supplement of paper PMC10326071.

Several values for one entry are separate records, joined by “and”; a condition that tells them apart may be missing. Identical values can stand only once. The list shows a part of the results. Most values come without repeats; read them as rough.

One test deals with SARS-CoV-2 nsp3 SARS-unique domain core (SUD-core, nsp3 residues 413-676). The experiment in a line: dissociation rate constant koff (BLI); higher = faster dissociation. As to conditions: 100 µM; 25 °C.
With `CCn1cc(-c2ccnc3[nH]c(-c4cccc(CN(C)C)c4)cc23)c(-c2ccc(NC(=O)N(C)C)cc2)n1`, the “dissociation rate constant koff” value came to 0.0557 s⁻¹.
The same measure, in the same setting: the figure for `COCCNCCc1cccc(Nc2ncc3c(n2)-c2ccccc2[C@H](c2ccccc2F)C3)c1` is 0.00641 s⁻¹; for `COc1cc(-c2cc(-c3ccc(N4CCNCC4)cc3)cnc2C)cc(OC)c1OC` it is 0.0748 s⁻¹; for `Nc1ncnc2c1ncn2[C@H]1C[C@H](O)[C@@H](CO)O1` it is 0.0268 s⁻¹.
Still for that read-out and setting: with `N#C/C(=C(/N)Sc1ccc(N)cc1)c1ccccc1C(F)(F)F` the figure was 0.655 s⁻¹.
On the same count and under the same terms, with `COc1ccc(C(OC[C@H]2O[C@@H](n3cc(C)c(=O)[nH]c3=O)C[C@@H]2OP(OCCC#N)N(C(C)C)C(C)C)(c2ccccc2)c2ccc(OC)cc2)cc1` (stereo partly drawn) the figure was 0.489 s⁻¹.
On to `Nc1ccn([C@H]2CC[C@@H](CO)O2)c(=O)n1`, for which the “dissociation rate constant koff” value amounted to 0.0142 s⁻¹.
Same read-out and setting: with `C=C(CCC=C(C)C)[C@H]1CC[C@]2(C)[C@@H]1[C@H](O)C[C@@H]1[C@@]3(C)CC[C@H](O[C@@H]4O[C@H](CO)[C@@H](O)[C@H](O)[C@H]4O[C@@H]4O[C@H](CO)[C@@H](O)[C@H](O)[C@H]4O)C(C)(C)[C@@H]3CC[C@]12C` the figure was 0.0067 s⁻¹; with `COc1cc(OC)cc(N(CCNC(C)C)c2ccc3ncc(-c4cnn(C)c4)nc3c2)c1`, 0.602 s⁻¹; with `Nc1ncnc2nc[nH]c12`, 0.0406 s⁻¹.
Still for that read-out and setting: the figure for `O=c1[nH]cnc2c1ncn2[C@H]1C[C@H](O)[C@@H](CO)O1` is 0.0426 s⁻¹; for `CN1CC[C@H](c2c(O)cc(O)c3c(=O)cc(-c4ccccc4Cl)oc23)[C@H](O)C1` it is 0.0895 s⁻¹.
On the same count and under the same terms, with `NC(=O)c1ccc[n+]([C@@H]2O[C@H](COP(=O)([O-])OP(=O)(O)OC[C@H]3O[C@@H](n4cnc5c(N)ncnc54)[C@H](O)[C@@H]3O)[C@@H](O)[C@H]2O)c1` the figure was 0.0155 s⁻¹; with `Nc1ccc(CCNc2ncnc3c2ncn3[C@@H]2O[C@H](CO)[C@@H](O)[C@H]2O)cc1`, 0.0156 s⁻¹.
As for `C[C@H]1O[C@@H](n2cc(F)c(=O)[nH]c2=O)[C@H](O)[C@@H]1O`, the “dissociation rate constant koff” value turned out to be 0.115 s⁻¹.
The same measure, in the same setting: with `CN1CCN(c2nc(C3=C(c4c[nH]c5ccccc45)C(=O)NC3=O)c3ccccc3n2)CC1` the figure was 0.976 s⁻¹; with `CNC(=O)c1ccccc1Oc1nc(Nc2cc(OC)c(OC)c(OC)c2)ncc1Br`, 1.53 s⁻¹.
Same read-out and setting: the figure for `Cc1ccc(-n2nc(C(C)(C)C)cc2NC(=O)Nc2ccc(OCCN3CCOCC3)c3ccccc23)cc1` is 0.266 s⁻¹; for `O=c1[nH]c(=O)n([C@H]2C[C@H](O)[C@@H](CO)O2)cc1F` it is 0.0495 s⁻¹.
On the same count and under the same terms, the figure for `c1cncc(CN2CCC(n3ncc4c(N5CCOCC5)nc(-c5ccc6[nH]ccc6c5)nc43)CC2)c1` is 0.182 s⁻¹.
As for `CCS(=O)(=O)Nc1ccc2[nH]c(O)c(C(=Nc3ccc(CN4CCCCC4)cc3)c3ccccc3)c2c1`, the “dissociation rate constant koff” value amounted to 0.0347 s⁻¹.
With `Nc1ncnc2c1ncn2[C@@H]1O[C@H](CO)[C@@H](O)[C@H]1F`, the “dissociation rate constant koff” value amounted to 37.3 s⁻¹.
The same measure, in the same setting: with `Nc1ccc(O)c(C(=O)O)c1` the figure was 0.00111 s⁻¹; with `COCCOc1ccc(-c2cn(-c3ccccc3)c3nc[nH]c(=O)c23)cc1`, 0.079 s⁻¹; with `CN(c1ccc(NC(=O)Nc2ccc(OC(F)(F)F)cc2)cc1)c1ccnc(Nc2cccc(S(N)(=O)=O)c2)n1`, 0.0132 s⁻¹.
Same read-out and setting: with `Nc1ncnc2c1ncn2[C@@H]1O[C@H](COP(=O)(O)O)[C@@H](O)[C@H]1O` the figure was 0.0253 s⁻¹ and 0.0285 s⁻¹; with `CC(C)=CCc1c(O)ccc(C(=O)/C=C/c2ccc(O)cc2)c1O`, 0.0622 s⁻¹.
Same read-out and setting: the figure for `COc1cc(F)c(F)c(Nc2ccc(I)cc2F)c1NS(=O)(=O)C1(C[C@H](O)CO)CC1` is 0.413 s⁻¹.
For the compound `O=C1NC(=O)[C@@H](c2cn3c4c(cccc24)CCC3)[C@@H]1c1c[nH]c2ccccc12`, the “dissociation rate constant koff” value is 0.542 s⁻¹.
The same measure, in the same setting: the figure for `Cc1c(C(=O)Nc2ccc(Oc3ccnc4cc(OCC(C)(C)O)ccc34)c(F)c2)c(=O)n(-c2ccccc2)n1C` is 0.159 s⁻¹; for `COC1(C(=O)N[C@@H](C)c2ccc(-n3cc(F)cn3)nc2)CCC(c2nc(C)cc(Nc3cc(C)[nH]n3)n2)CC1` (stereo partly drawn) it is 0.749 s⁻¹; for `CO[C@@H]1[C@H](O)[C@@H](CO)O[C@H]1n1cnc2c(N)ncnc21` it is 0.0146 s⁻¹.
On the same count and under the same terms, with `CCCC(=O)Nc1nc2c(ncn2[C@@H]2O[C@@H]3COP(=O)(O)O[C@H]3[C@H]2OC(=O)CCC)c(=O)[nH]1` the figure was 0.0162 s⁻¹; with `Nc1nccc(-c2c(-c3ccc(F)cc3)ncn2C2CCCCC2)n1`, 0.485 s⁻¹; with `C#Cc1c[nH]c(=O)[nH]c1=O`, 0.00985 s⁻¹.
Same read-out and setting: with `CC(C)c1cnc(-c2cc(Cl)ccc2F)cc1Nc1ccncc1C(=O)NC(CO)CO` the figure was 0.216 s⁻¹; with `CC(C)(C)S(=O)(=O)c1cc2c(Nc3ccc4scnc4c3)ccnc2cc1OCCOCCOCCOCCOCC(=O)Nc1cccc2c1CN(C1CCC(=O)NC1=O)C2=O` (stereo not drawn), 0.336 s⁻¹.
Turning to `COc1ccc(C(OC[C@H]2O[C@@H](n3ccc(NC(=O)c4ccccc4)nc3=O)C[C@@H]2O)(c2ccccc2)c2ccc(OC)cc2)cc1`, the “dissociation rate constant koff” value came to 0.0135 s⁻¹.
On the same count and under the same terms, the figure for `COc1ccc([C@@H](O)c2cc(-c3ncnc4cc(N5CCOCC5)ccc34)c(F)cc2Cl)nn1` is 0.00278 s⁻¹.

The test system is the same in a further test. The experiment in a line: apparent dissociation constant Kd (single-concentration BLI fit); higher = weaker binding. To be noted: 100 µM; 25 °C.
On to `CCn1cc(-c2ccnc3[nH]c(-c4cccc(CN(C)C)c4)cc23)c(-c2ccc(NC(=O)N(C)C)cc2)n1`, for which the “apparent dissociation constant Kd” value was determined as 8530 µM.
Same read-out and setting: the figure for `COCCNCCc1cccc(Nc2ncc3c(n2)-c2ccccc2[C@H](c2ccccc2F)C3)c1` is 83.8 µM.
For the compound `COc1cc(-c2cc(-c3ccc(N4CCNCC4)cc3)cnc2C)cc(OC)c1OC`, the “apparent dissociation constant Kd” value is 64.9 µM.
On the same count and under the same terms, the figure for `Nc1ncnc2c1ncn2[C@H]1C[C@H](O)[C@@H](CO)O1` is 19100 µM; for `N#C/C(=C(/N)Sc1ccc(N)cc1)c1ccccc1C(F)(F)F` it is 1700 µM.
On the same count and under the same terms, with `COc1ccc(C(OC[C@H]2O[C@@H](n3cc(C)c(=O)[nH]c3=O)C[C@@H]2OP(OCCC#N)N(C(C)C)C(C)C)(c2ccccc2)c2ccc(OC)cc2)cc1` (stereo partly drawn) the figure was 1800 µM.
In the case of `Nc1ccn([C@H]2CC[C@@H](CO)O2)c(=O)n1`, the “apparent dissociation constant Kd” value was found to be 108 µM.
Still for that read-out and setting: the figure for `C=C(CCC=C(C)C)[C@H]1CC[C@]2(C)[C@@H]1[C@H](O)C[C@@H]1[C@@]3(C)CC[C@H](O[C@@H]4O[C@H](CO)[C@@H](O)[C@H](O)[C@H]4O[C@@H]4O[C@H](CO)[C@@H](O)[C@H](O)[C@H]4O)C(C)(C)[C@@H]3CC[C@]12C` is 24.5 µM; for `COc1cc(OC)cc(N(CCNC(C)C)c2ccc3ncc(-c4cnn(C)c4)nc3c2)c1` it is 1650 µM; for `Nc1ncnc2nc[nH]c12` it is 295 µM.
The same measure, in the same setting: the figure for `O=c1[nH]cnc2c1ncn2[C@H]1C[C@H](O)[C@@H](CO)O1` is 270 µM; for `CN1CC[C@H](c2c(O)cc(O)c3c(=O)cc(-c4ccccc4Cl)oc23)[C@H](O)C1` it is 174 µM; for `NC(=O)c1ccc[n+]([C@@H]2O[C@H](COP(=O)([O-])OP(=O)(O)OC[C@H]3O[C@@H](n4cnc5c(N)ncnc54)[C@H](O)[C@@H]3O)[C@@H](O)[C@H]2O)c1` it is 128 µM.
On the same count and under the same terms, with `Nc1ccc(CCNc2ncnc3c2ncn3[C@@H]2O[C@H](CO)[C@@H](O)[C@H]2O)cc1` the figure was 56.3 µM.
Consider `C[C@H]1O[C@@H](n2cc(F)c(=O)[nH]c2=O)[C@H](O)[C@@H]1O`, for which the “apparent dissociation constant Kd” value worked out at 27500 µM.
Same read-out and setting: with `CN1CCN(c2nc(C3=C(c4c[nH]c5ccccc45)C(=O)NC3=O)c3ccccc3n2)CC1` the figure was 1020 µM; with `CNC(=O)c1ccccc1Oc1nc(Nc2cc(OC)c(OC)c(OC)c2)ncc1Br`, 673 µM; with `Cc1ccc(-n2nc(C(C)(C)C)cc2NC(=O)Nc2ccc(OCCN3CCOCC3)c3ccccc23)cc1`, 2050 µM.
For `O=c1[nH]c(=O)n([C@H]2C[C@H](O)[C@@H](CO)O2)cc1F`, the “apparent dissociation constant Kd” value was determined as 1400 µM.
With `c1cncc(CN2CCC(n3ncc4c(N5CCOCC5)nc(-c5ccc6[nH]ccc6c5)nc43)CC2)c1`, the “apparent dissociation constant Kd” value amounted to 3390 µM.
The same measure, in the same setting: with `CCS(=O)(=O)Nc1ccc2[nH]c(O)c(C(=Nc3ccc(CN4CCCCC4)cc3)c3ccccc3)c2c1` the figure was 51.7 µM; with `Nc1ncnc2c1ncn2[C@@H]1O[C@H](CO)[C@@H](O)[C@H]1F`, 408 µM; with `Nc1ccc(O)c(C(=O)O)c1`, 3.4 µM.
Same read-out and setting: the figure for `COCCOc1ccc(-c2cn(-c3ccccc3)c3nc[nH]c(=O)c23)cc1` is 71.1 µM; for `CN(c1ccc(NC(=O)Nc2ccc(OC(F)(F)F)cc2)cc1)c1ccnc(Nc2cccc(S(N)(=O)=O)c2)n1` it is 233 µM.
On the same count and under the same terms, the figure for `Nc1ncnc2c1ncn2[C@@H]1O[C@H](COP(=O)(O)O)[C@@H](O)[C@H]1O` is 103 µM and 265 µM; for `CC(C)=CCc1c(O)ccc(C(=O)/C=C/c2ccc(O)cc2)c1O` it is 310 µM.
`COc1cc(F)c(F)c(Nc2ccc(I)cc2F)c1NS(=O)(=O)C1(C[C@H](O)CO)CC1`: the “apparent dissociation constant Kd” value was determined as 2550 µM.
Same read-out and setting: the figure for `O=C1NC(=O)[C@@H](c2cn3c4c(cccc24)CCC3)[C@@H]1c1c[nH]c2ccccc12` is 2170 µM; for `Cc1c(C(=O)Nc2ccc(Oc3ccnc4cc(OCC(C)(C)O)ccc34)c(F)c2)c(=O)n(-c2ccccc2)n1C` it is 2340 µM; for `COC1(C(=O)N[C@@H](C)c2ccc(-n3cc(F)cn3)nc2)CCC(c2nc(C)cc(Nc3cc(C)[nH]n3)n2)CC1` (stereo partly drawn) it is 17100 µM.
With `CO[C@@H]1[C@H](O)[C@@H](CO)O[C@H]1n1cnc2c(N)ncnc21`, the “apparent dissociation constant Kd” value amounted to 95.9 µM.
The same measure, in the same setting: the figure for `CCCC(=O)Nc1nc2c(ncn2[C@@H]2O[C@@H]3COP(=O)(O)O[C@H]3[C@H]2OC(=O)CCC)c(=O)[nH]1` is 66.6 µM.
On the same count and under the same terms, the figure for `Nc1nccc(-c2c(-c3ccc(F)cc3)ncn2C2CCCCC2)n1` is 162 µM; for `C#Cc1c[nH]c(=O)[nH]c1=O` it is 44.7 µM.
Still for that read-out and setting: with `CC(C)c1cnc(-c2cc(Cl)ccc2F)cc1Nc1ccncc1C(=O)NC(CO)CO` the figure was 2710 µM; with `CC(C)(C)S(=O)(=O)c1cc2c(Nc3ccc4scnc4c3)ccnc2cc1OCCOCCOCCOCCOCC(=O)Nc1cccc2c1CN(C1CCC(=O)NC1=O)C2=O` (stereo not drawn), 6360 µM; with `COc1ccc(C(OC[C@H]2O[C@@H](n3ccc(NC(=O)c4ccccc4)nc3=O)C[C@@H]2O)(c2ccccc2)c2ccc(OC)cc2)cc1`, 84.3 µM.
On to `COc1ccc([C@@H](O)c2cc(-c3ncnc4cc(N5CCOCC5)ccc34)c(F)cc2Cl)nn1`, for which the “apparent dissociation constant Kd” value was found to be 21.4 µM.
